The structures appear in SMILES notation. The full ranking holds about 110,000 compounds; the median of “z-score” is about -0.1, and the highest 2% start at about 2. Some of the results follow. Calls of active or inactive are those of the source.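 The calls were made as follows: active = z-score in the third read window above 3 or below -3; inactive = the rest.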

This test concerns the target Metabotropic glutamate receptor 8 (Rattus norvegicus) (UniProt P70579). Nature of the test: mGluR8 Gi/Go-coupled signaling modulation – cell-based, rat, thallium flux, HTS, primary screen (AID 488969). To be noted: HEK293 rat mGluR8, GIRK (G protein-gated inwardly rectifying potassium channel) thallium flux, FluoZin2; at 10 µM; stronger effect = higher value; submaximal glutamate (EC20) added with thallium.
Chain of UniProt P70579 (P70579 whole entry, looked up): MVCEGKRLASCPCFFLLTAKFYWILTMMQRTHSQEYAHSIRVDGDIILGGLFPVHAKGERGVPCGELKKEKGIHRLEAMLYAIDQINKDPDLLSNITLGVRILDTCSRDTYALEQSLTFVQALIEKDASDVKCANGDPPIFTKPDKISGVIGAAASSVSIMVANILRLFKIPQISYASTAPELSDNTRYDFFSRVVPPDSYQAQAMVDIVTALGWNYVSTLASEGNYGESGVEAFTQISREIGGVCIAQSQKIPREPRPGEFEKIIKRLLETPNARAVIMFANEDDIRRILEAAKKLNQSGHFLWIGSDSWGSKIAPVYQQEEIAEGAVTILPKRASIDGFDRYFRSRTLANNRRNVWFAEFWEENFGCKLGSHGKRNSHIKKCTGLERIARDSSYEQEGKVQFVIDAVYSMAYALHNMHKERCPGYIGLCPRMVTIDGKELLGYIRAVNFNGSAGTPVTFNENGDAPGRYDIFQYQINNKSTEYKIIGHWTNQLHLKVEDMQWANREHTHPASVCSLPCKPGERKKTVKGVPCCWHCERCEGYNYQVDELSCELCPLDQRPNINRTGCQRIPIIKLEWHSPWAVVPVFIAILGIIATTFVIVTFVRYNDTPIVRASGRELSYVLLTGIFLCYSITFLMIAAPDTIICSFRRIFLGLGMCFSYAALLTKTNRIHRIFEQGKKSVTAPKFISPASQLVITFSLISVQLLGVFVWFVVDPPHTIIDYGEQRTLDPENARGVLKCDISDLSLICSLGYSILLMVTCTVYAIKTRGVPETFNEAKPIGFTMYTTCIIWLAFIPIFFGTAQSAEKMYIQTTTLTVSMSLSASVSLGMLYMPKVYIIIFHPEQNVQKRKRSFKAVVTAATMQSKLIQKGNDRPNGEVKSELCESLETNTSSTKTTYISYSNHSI
As to `CCN1CCCC1CNC(=O)c1cc2c(=O)n(C)c3ccccc3c2n1C` (stereo not drawn), the z-score is -0.0866.

With `Cc1cc(C(F)(F)F)nc(NCc2cccnc2)n1`, the z-score came out at 0.165.

As to `COc1ccc(CC(=O)Nc2ccc3c(c2)CCC3)cc1`, the z-score is 0.0703.

Regarding `C/C(=N\NC(=O)C(C)Sc1ccccc1)C(C)(C)C` (stereo not drawn), the z-score was 1.72e-05.

In turn, `Cc1cc(C)c(S(=O)(=O)c2ccccc2)c(N(C)C)n1` came in with a z-score of -0.174.

`COc1cccc(C(=O)CN2CCN(S(=O)(=O)c3ccc(Br)cc3)CC2)c1`: the z-score is -0.472.

With `Cc1c([N+](=O)[O-])c(C(=O)N2CCCC2)nn1C`, the z-score is -0.139.

Regarding `Cn1c(C(=O)O)cc2cc(F)ccc21`, the z-score is -0.516.

On to `Cc1ccc2c(Cl)c(C(=O)Nc3cc(C)on3)sc2c1`, for which the z-score is 0.0578.

As for `Cc1[nH]nc2c1C(c1ccsc1C)C(C#N)=C(N)O2` (stereo not drawn), the z-score is -1.19.

`CCOC(=O)C1=C(C)NC(=O)NC1c1ccc2c(c1)OCO2` (stereo not drawn) came in with a z-score of -0.161.

As for `Cn1c(-c2ccccc2)cnc1SCC(=O)N1CCCc2ccccc21`, the z-score is -0.333.

Consider `Cn1c(/C=N/NC(=O)c2ccccc2Br)nc2ccccc21`, for which the z-score is -0.216.

As for `O=C1C2CC=C(Cl)CC2C(=O)N1CCc1c[nH]c2ccccc12` (stereo not drawn), the z-score is 0.173.

Take `CC(=O)c1ccc(Sc2ccc(C(C)=O)cc2)cc1`: the z-score was -0.316.

Regarding `COc1cccc(-c2cc(C(=O)Nc3c(C)nn(Cc4ccccc4)c3C)no2)c1`, the z-score is -0.515.

In turn, `O=[N+]([O-])c1ccccc1OCCCCN1CCCCC1` had a z-score of 0.0447.

In turn, `c1ccc(N=P(c2nc3ccccc3o2)(N2CCOCC2)N2CCOCC2)cc1` yielded a z-score of 0.113.

`CCOC(=O)N1CCN(C(=O)CSCC(=O)Nc2nc(-c3ccc(C)cc3)cs2)CC1` showed a z-score of -0.166.

Take `Cc1noc(NS(=O)(=O)c2ccc(NC(=O)CCC3CCCC3)cc2)c1C`: the z-score was -0.241.

For `O=C(Nc1ccc2c(c1)OCO2)Oc1ccccc1`, the z-score came to 0.125.

As to `CCn1c(N2CCN(CC(=O)c3ccc(OC)cc3)CC2)nc2ccccc21`, the z-score was -0.715.

Regarding `N#Cc1cc(-c2ccccc2)c[nH]c1=O`, the z-score was -0.286.

Turning to `O=C(COc1ccc(Cl)cc1)NCc1nnc(SCC(=O)N2CCCc3ccccc32)o1`, the z-score is -0.183.

As to `C/C(=N\OC(=O)Nc1ccc(Cl)cc1)c1ncc(C(F)(F)F)cc1N1CCOCC1`, the z-score is 0.345.

`CC(NS(=O)(=O)c1ccc(OCC(=O)N2CCOCC2)c(Cl)c1)c1ccccc1` (stereo not drawn) came in with a z-score of 0.573.

`Cc1nc(-c2cccc(N)c2)cs1` had a z-score of -0.00349.

Regarding `CCCc1nn(C)c(C(=O)Nc2ccc(Cl)cc2)c1Cl`, the z-score was -0.344.

In the case of `Cn1cccc1/C=C1\CCC/C(=C\c2cccn2C)C1=O`, the z-score was -1.22.

For `Cc1ccc2nc(SCC(=O)Nc3cc(C(C)(C)C)nn3-c3ccccc3)[nH]c2c1`, the z-score is -0.605.

In turn, `CC(C)NC(=S)N/N=C/c1ccc2c(c1)OCCO2` yielded a z-score of 1.16.

Turning to `COCc1nnc(NS(=O)(=O)c2c(C)cc(C)cc2C)s1`, the z-score came out at 0.0171.

Regarding `CCCN(CCC)CC(O)COc1ccc([N+](=O)[O-])cc1` (stereo not drawn), the z-score was -0.273.

As for `Cc1ccc(NC(=O)COc2ccc(Br)cc2CO)cc1`, the z-score was -0.489.

In turn, `O=C(NC1CCCC1)C1CCN(c2nccs2)CC1` came in with a z-score of 0.382.

`Cc1nn(-c2cccc(C(=O)O)c2)c(C)c1Oc1ccccc1O` showed a z-score of -0.445.

As for `COc1ccccc1NC(=O)COC(=O)c1cnccn1`, the z-score is -0.931.

Regarding `CCN1C(=O)/C(=C\C=C2/C=CC=CN2CC)SC1=S`, the z-score was -0.449.

As for `Cc1[nH]c(=S)[nH]c(=O)c1Cc1ccccc1`, the z-score is 0.196.

For `CN(C)S(=O)(=O)N1CCN(S(=O)(=O)c2ccccc2)CC1`, the z-score was -0.177.

On to `O=c1c(C(c2c(O)nc3n(c2=O)CCS3)c2cccc3ccccc23)c(O)nc2n1CCS2`, for which the z-score was found to be 0.0224.

`COc1ccc(C)cc1NC(=O)C(OC(=O)CNC(=O)c1cccc(F)c1)c1ccccc1` (stereo not drawn) had a z-score of -0.268.

`Nc1cccc(NC(=O)c2cccs2)c1` returned a z-score of -0.248.

With `Cc1cc(C(=O)COC(=O)CC2Sc3ccccc3NC2=O)c(C)n1-c1cccc(C(F)(F)F)c1` (stereo not drawn), the z-score was 0.332.

`COc1ccccc1NC(=S)NCc1ccco1` gave a z-score of 0.152.

`CCCN(CCC)S(=O)(=O)c1ccc(C(=O)Nc2ccc(OCC(=O)N3CCOCC3)cc2)cc1` returned a z-score of -0.573.

On to `CCOC(=O)c1ccc(NC(=S)N(CCCN2CCCC(C)C2)Cc2ccco2)cc1` (stereo not drawn), for which the z-score turned out to be 0.882.

Compound `CCCS(=O)(=O)N1CCN(C(=O)c2cccs2)CC1` had a z-score of -0.122.

Compound `CCOc1ccc2nc(SCC)[nH]c2c1` had a z-score of 1.32.

The compound `CCc1nnc(NC(=O)CSc2nnc(C)n2Cc2ccccc2)s1` displayed a z-score of -0.029.

As to `Cc1cc(N2C(=O)C(O)=C(C(=O)c3cccs3)C2c2ccccc2)no1` (stereo not drawn), the z-score is -1.48.

The compound `COC(=O)c1nc2cc3c(cc2c(C)c1C(=O)OC)OCO3` showed a z-score of -0.352.

Take `O=C(Nc1ccc(Nc2ccccc2)cc1)C(Cl)(Cl)Cl`: the z-score is -0.286.

`O=C(NCCCCNC(=O)c1c(F)c(F)c(F)c(F)c1F)c1c(F)c(F)c(F)c(F)c1F` came in with a z-score of -0.0446.

For the compound `COc1ccccc1-n1c(=O)[nH]c2c(C(N)=O)nc(CC(C)C)nc21`, the z-score was 0.621.

On to `CC(C)=CCC(C)(C)C1OCCN1C(=O)c1ccccc1` (stereo not drawn), for which the z-score is -0.122.

Regarding `S=c1[nH]nc(-c2ccco2)n1/N=C/C=C/c1ccco1`, the z-score was -0.366.

As for `COc1ccc(CN2C(=O)c3cccnc3C2Nc2cc(Cl)c(OC)cc2OC)cc1` (stereo not drawn), the z-score was determined as 0.435.

Consider `CCNC1=C(Cl)C(=O)c2ccccc2C1=O`, for which the z-score was found to be 1.01.

In turn, `COc1ccccc1-n1c(SCC(=O)N2CCCCC2)nnc1-c1ccccc1O` gave a z-score of -0.514.

In the case of `CCCCS(=O)(=O)NC1=NCN(CCOC(=O)c2ccccc2)CN1`, the z-score is -0.135.

`CC(C)CCOCC1CC2(CC(C)(c3csc(N)n3)OC2=O)C(=O)O1` (stereo not drawn) gave a z-score of 0.393.

The compound `Cc1ccc(-c2ccc(=O)n(CCC(=O)NCc3ccccn3)n2)cc1` showed a z-score of -0.554.

Regarding `Cc1cc(C(C)(C)C)ccc1OCCCCN1CCCC1`, the z-score is 0.298.

Consider `CCn1c(=O)n(CC(=O)N2CC(C)CC(C)C2)c(=O)c2ccccc21` (stereo not drawn), for which the z-score was -0.15.

The compound `CCn1c(SCc2ccc(C(=O)Nc3nccs3)cc2)nnc1-c1ccc(N)cc1` displayed a z-score of 1.08.

`COC(=O)c1ccc(CSc2ccc3nnc(-c4cccc(F)c4)n3n2)o1`: the z-score was -0.901.

`COc1ccc(OC)c(-n2nnnc2SCC(=O)O)c1` showed a z-score of 0.608.

Take `O=C(CCC(NC(=O)OCc1ccccc1)C(=O)OCC(=O)N1CCCCC1)OCC(=O)N1CCCCC1` (stereo not drawn): the z-score stood at 0.254.

Take `O=C(Nc1nc(-c2ccccn2)cs1)c1ccc(Br)s1`: the z-score is active: 12.3.

As for `CC1(C(=O)O)CC(C)(C(=O)O)CC(C)(C(=O)O)C1` (stereo not drawn), the z-score is 0.139.

Take `CN(C)S(=O)(=O)N1CCN(c2cc(Cl)ccc2Cl)CC1`: the z-score stood at 0.268.

For the compound `COCCNC(=O)NC(=O)COC(=O)Cc1ccc2c(c1)OCCO2`, the z-score stood at 0.0261.

In turn, `C/C(=N\OCC(=O)NC12CC3CC(CC(C3)C1)C2)c1cc2ccccc2o1` gave a z-score of 0.0142.

`CCCC/C(O)=C1\C(=O)CC(C)(C)CC1=Nc1ccc(OC)cc1` gave a z-score of -1.72.

In turn, `CC(=O)N1CCN(CC(=O)Nc2ccccc2Sc2ccccc2)CC1` returned a z-score of 1.16.

Take `O=C(CNS(=O)(=O)c1ccc(Br)s1)Nc1ccc2c(c1)OCCO2`: the z-score is 0.264.

`CC(/C=C/c1ccccc1)=N\NC(=O)C1CC1(C)c1ccccc1` (stereo not drawn) had a z-score of 0.5.

`Oc1c(Cl)cc(Cl)c2c1NCCC2`: the z-score is active: 5.54.

`Nc1nc(SCC(=O)NCCC(c2ccccc2)c2ccccc2)n[nH]1` displayed a z-score of -0.272.

On to `CCc1c(O)nc(SC2CC(=O)N(c3ccccc3)C2=O)[nH]c1=O` (stereo not drawn), for which the z-score is -0.148.

With `COCCn1c(C)cc(C(=O)CSc2nncn2-c2ccccc2)c1C`, the z-score is 1.04.

In turn, `O=C(CSCc1nc2ccccc2[nH]1)Nc1ccc(Oc2ccccc2)cc1` showed a z-score of -0.12.

As to `c1ccc(-c2cc(CSc3nc4ccccc4[nH]3)on2)cc1`, the z-score turned out to be 0.11.

Consider `Cc1[nH]c2ccccc2c1/C=N/NC(=O)CNC(=O)c1ccc2c(c1)OCO2`, for which the z-score is 0.371.

`COc1ccc(S(=O)(=O)NCc2csc(C)n2)cc1` came in with a z-score of -0.594.

For `CCC(=O)Nc1ccccc1-c1nnn(CC(=O)N2c3ccccc3CC2C)n1` (stereo not drawn), the z-score is -1.96.

The compound `Cc1[nH]c2ccccc2c1C(=O)C(=O)N1CCCc2ccccc21` yielded a z-score of 0.143.

`Cc1sc2ncnc(Sc3nc4ccccc4s3)c2c1C` displayed a z-score of 0.269.

Compound `CCC(C(=O)Nc1ccccc1C(=O)N1CCOCC1)N1C(=O)c2ccccc2C1=O` (stereo not drawn) gave a z-score of 0.202.

In turn, `COc1ccc(NC(=S)Nc2ccc3nc(C)c(C)nc3c2)cc1` returned a z-score of -0.104.

`Cc1cc(C)cc(OCC(=O)OCC(=O)NCc2cccs2)c1` had a z-score of -0.709.

Compound `Cc1ccc(C2=CSC3=NS(=O)(=O)CCN23)cc1C` came in with a z-score of 0.215.

As for `OC(COc1ccc2c(c1)CCC2)Cn1cnc2ccccc21` (stereo not drawn), the z-score amounted to 0.6.

On to `Cc1nc2ccc(-n3ccc(=O)cc3)cc2s1`, for which the z-score was 0.24.

`O=C(Nc1ccc([N+](=O)[O-])cc1)Nc1nc(-c2ccc(Cl)s2)cs1` came in with a z-score of -0.228.

`O=C(CNC(=O)C1COc2ccccc2O1)N/N=C/c1ccc(O)cc1O` (stereo not drawn) came in with a z-score of 0.15.

In the case of `CCOCCCNS(=O)(=O)c1ccc2c(c1)oc(=O)n2CC(=O)OCC`, the z-score was 0.0519.

The compound `COc1ccc(CCNC(=O)NC23CC4CC(CC(C4)C2)C3)cc1OC` returned a z-score of -0.338.

Consider `O=C(Cn1cnc2scc(-c3ccc(F)cc3)c2c1=O)N1CCOCC1`, for which the z-score was 0.204.

Regarding `CN1C(=O)/C(=N/OC(=O)c2ccccc2)c2ccccc21`, the z-score was -0.405.

Consider `COc1ccccc1NC(=O)C/C(N)=N/O`, for which the z-score was -0.207.

Turning to `O=C(c1cc2sccc2n1Cc1ccccc1)N1CCN(c2nc3ccccc3s2)CC1`, the z-score is 0.0366.

For the compound `Cc1ccc(/C=C/C(=O)O)cc1S(=O)(=O)N(C)CCO`, the z-score turned out to be 0.702.

`CCc1c(C(=O)N/N=C/c2ccc(C)o2)csc1C` registered a z-score of -1.55.

Compound `COc1ccc(OC)c(NC(=O)c2sc3nc(Cc4ccccc4)cc(C(F)(F)F)c3c2N)c1` yielded a z-score of -0.894.

`COc1ccc(C2NC(=O)NC(C)=C2C(=O)OCc2ccc3c(c2)OCO3)cc1OC` (stereo not drawn): the z-score was -0.256.

For `COc1ccc(OCCNC(=O)c2cccc(Oc3ccc(C(F)(F)F)cc3[N+](=O)[O-])c2)cc1`, the z-score was -0.158.

In turn, `Cc1ccc(NC(=O)c2ccccc2CCc2ccccc2)c(C)c1` yielded a z-score of -0.313.

`CC(=O)Nc1c(NCC(C)C)c2ccccc2oc1=O` displayed a z-score of -0.00889.

With `O=C(CCCn1c(=S)[nH]c2cc3c(cc2c1=O)OCO3)N1CCN(c2ccc(F)cc2)CC1`, the z-score was -0.237.

On to `CCOc1ccc(N=c2scc(-c3ccc(OC)cc3)n2CCO)cc1`, for which the z-score is -0.113.

`COc1cccc(/C=N/NC(=O)c2cc(-c3cccn3C)n[nH]2)c1` yielded a z-score of -0.0314.

Values taken from PubChem BioAssay AID488969 (Vanderbilt High Throughput Screening Facility, 2010).
